Experimental data published in paper PMC12014981.
Results are given in words; binding and its absence hold for the method and conditions named. Binding seen in cells or lysates may run through a third protein. Some results given as binding are weak or reduced against the parent protein; the word gives no strength. Sequences can lack the tags named with a protein.

By UniProt entry, the sequences of proteins in these tests, tags left out.
UniProt Q14247: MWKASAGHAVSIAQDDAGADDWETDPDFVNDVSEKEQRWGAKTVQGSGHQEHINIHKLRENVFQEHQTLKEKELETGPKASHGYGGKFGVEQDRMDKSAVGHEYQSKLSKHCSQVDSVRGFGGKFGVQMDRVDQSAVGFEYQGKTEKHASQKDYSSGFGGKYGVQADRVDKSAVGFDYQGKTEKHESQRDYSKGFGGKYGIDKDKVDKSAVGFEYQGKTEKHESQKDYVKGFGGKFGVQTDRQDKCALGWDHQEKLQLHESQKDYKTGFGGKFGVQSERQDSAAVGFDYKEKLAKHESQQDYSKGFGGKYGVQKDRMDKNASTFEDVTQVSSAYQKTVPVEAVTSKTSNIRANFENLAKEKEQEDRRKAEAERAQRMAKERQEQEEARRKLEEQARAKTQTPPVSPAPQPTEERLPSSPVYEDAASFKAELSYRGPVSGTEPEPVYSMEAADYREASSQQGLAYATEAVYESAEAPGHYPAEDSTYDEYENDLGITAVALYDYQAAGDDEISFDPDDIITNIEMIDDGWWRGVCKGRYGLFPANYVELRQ
UniProt Q99961: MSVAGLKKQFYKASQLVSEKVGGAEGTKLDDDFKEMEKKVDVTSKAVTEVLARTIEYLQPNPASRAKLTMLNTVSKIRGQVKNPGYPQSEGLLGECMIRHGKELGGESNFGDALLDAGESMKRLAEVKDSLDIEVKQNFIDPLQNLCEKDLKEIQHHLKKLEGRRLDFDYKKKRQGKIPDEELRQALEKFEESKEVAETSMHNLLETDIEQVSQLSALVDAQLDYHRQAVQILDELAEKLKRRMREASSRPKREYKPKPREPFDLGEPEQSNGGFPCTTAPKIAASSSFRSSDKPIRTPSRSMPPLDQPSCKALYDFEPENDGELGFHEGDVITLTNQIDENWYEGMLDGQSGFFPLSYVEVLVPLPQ
UniProt O95782: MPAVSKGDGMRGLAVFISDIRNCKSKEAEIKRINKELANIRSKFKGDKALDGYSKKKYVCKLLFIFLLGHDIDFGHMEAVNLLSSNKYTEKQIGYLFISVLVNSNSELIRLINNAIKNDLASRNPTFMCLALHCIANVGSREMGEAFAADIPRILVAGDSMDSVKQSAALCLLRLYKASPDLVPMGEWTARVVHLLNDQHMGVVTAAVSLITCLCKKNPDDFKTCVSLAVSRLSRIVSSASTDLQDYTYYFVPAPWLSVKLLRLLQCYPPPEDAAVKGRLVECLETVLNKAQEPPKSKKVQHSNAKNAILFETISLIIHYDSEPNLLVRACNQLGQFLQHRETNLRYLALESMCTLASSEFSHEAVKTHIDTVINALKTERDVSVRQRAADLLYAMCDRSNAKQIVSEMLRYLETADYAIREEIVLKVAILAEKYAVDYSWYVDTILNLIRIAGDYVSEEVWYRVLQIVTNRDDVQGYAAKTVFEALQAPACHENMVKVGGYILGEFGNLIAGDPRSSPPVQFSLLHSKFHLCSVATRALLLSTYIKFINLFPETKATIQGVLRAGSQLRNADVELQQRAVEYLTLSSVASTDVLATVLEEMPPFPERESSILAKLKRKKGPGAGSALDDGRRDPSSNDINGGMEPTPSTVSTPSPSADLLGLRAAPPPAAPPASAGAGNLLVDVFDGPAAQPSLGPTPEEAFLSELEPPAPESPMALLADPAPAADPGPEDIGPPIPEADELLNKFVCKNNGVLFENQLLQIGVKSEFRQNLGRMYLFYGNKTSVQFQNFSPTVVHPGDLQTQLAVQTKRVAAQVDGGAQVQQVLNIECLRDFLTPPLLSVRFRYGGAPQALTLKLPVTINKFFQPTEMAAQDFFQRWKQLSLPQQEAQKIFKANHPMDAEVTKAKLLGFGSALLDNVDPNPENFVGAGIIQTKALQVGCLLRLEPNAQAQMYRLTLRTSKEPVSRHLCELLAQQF
UniProt O94973: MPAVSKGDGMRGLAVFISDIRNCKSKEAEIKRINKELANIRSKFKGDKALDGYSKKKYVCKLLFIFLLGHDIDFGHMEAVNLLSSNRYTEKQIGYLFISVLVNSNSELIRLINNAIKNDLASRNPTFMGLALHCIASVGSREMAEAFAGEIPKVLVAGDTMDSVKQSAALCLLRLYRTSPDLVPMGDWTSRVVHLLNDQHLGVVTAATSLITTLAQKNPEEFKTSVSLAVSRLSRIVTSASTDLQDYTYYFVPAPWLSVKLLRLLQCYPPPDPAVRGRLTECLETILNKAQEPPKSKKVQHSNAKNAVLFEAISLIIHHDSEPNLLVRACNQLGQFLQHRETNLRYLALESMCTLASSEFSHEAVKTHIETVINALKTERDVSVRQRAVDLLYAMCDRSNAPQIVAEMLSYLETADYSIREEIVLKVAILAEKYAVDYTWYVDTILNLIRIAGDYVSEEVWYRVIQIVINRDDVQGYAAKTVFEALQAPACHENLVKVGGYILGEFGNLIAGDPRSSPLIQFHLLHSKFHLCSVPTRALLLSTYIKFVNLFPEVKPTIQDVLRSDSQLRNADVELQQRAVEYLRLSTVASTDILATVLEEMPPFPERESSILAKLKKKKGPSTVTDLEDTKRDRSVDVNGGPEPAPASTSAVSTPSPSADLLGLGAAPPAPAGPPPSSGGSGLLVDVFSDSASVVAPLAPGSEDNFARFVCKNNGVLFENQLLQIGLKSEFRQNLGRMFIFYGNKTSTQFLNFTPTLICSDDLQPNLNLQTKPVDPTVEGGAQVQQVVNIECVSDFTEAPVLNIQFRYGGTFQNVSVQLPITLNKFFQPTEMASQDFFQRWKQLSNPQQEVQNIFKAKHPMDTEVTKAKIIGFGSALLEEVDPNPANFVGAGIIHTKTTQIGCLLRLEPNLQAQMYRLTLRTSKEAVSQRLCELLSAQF
UniProt P63010: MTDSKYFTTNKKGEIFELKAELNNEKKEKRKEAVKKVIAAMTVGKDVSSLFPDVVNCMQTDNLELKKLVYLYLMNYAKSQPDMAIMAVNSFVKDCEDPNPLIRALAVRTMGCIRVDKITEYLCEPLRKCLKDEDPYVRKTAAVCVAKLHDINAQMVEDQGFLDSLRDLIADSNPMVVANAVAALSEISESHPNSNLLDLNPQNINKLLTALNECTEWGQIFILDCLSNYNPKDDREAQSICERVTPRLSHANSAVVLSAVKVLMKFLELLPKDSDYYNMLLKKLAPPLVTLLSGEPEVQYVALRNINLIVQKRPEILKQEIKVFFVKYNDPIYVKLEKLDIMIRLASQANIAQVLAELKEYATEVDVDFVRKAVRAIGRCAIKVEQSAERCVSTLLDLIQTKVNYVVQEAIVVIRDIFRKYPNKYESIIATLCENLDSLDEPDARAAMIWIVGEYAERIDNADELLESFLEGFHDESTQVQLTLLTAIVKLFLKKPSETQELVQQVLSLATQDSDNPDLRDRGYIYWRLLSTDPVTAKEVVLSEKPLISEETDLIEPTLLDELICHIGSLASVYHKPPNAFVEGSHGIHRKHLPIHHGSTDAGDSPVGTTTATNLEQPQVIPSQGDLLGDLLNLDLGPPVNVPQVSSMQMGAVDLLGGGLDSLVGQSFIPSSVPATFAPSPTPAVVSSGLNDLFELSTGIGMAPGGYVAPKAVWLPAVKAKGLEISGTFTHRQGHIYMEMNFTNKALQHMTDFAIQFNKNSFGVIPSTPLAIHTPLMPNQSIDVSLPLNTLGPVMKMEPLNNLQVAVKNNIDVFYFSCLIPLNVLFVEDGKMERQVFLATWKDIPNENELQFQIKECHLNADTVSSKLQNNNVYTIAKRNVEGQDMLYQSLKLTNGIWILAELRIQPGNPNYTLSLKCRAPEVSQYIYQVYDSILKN

T1: GFP-RAB23 (human) (UniProt Q9ULC3)
T1 sequence: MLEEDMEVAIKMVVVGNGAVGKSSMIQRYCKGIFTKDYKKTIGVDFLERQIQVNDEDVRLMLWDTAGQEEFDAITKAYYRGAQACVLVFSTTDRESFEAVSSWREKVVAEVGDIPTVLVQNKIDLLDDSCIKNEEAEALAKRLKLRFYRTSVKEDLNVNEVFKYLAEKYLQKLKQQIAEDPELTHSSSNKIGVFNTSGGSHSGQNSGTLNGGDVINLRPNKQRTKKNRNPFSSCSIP

T2: HA-RAB23 (human) (UniProt Q9ULC3)
T2 sequence: T1 sequence

B1: Phosphatidylinositol-binding clathrin assembly protein (protein, UniProt Q13492 1-652)
chain: MSGQSLTDRITAAQHSVTGSAVSKTVCKATTHEIMGPKKKHLDYLIQCTNEMNVNIPQLADSLFERTTNSSWVVVFKSLITTHHLMVYGNERFIQYLASRNTLFNLSNFLDKSGLQGYDMSTFIRRYSRYLNEKAVSYRQVAFDFTKVKRGADGVMRTMNTEKLLKTVPIIQNQMDALLDFNVNSNELTNGVINAAFMLLFKDAIRLFAAYNEGIINLLEKYFDMKKNQCKEGLDIYKKFLTRMTRISEFLKVAEQVGIDRGDIPDLSQAPSSLLDALEQHLASLEGKKIKDSTAASRATTLSNAVSSLASTGLSLTKVDEREKQAALEEEQARLKALKEQRLKELAKKPHTSLTTAASPVSTSAGGIMTAPAIDIFSTPSSSNSTSKLPNDLLDLQQPTFHPSVHPMSTASQVASTWGDPFSATVDAVDDAIPSLNPFLTKSSGDVHLSISSDVSTFTTRTPTHEMFVGFTPSPVAQPHPSAGLNVDFESVFGNKSTNVIVDSGGFDELGGLLKPTVASQNQNLPVAKLPPSKLVSDDLDSSLANLVGNLGIGNGTTKNDVNWSQPGEKKLTGGSNWQPKVAPTTAWNAATMAPPVMAYPATTPTGMIGYGIPPQMGSVPVMTQPTLIYSQPVMRPPNPFGPVSGAQIQFM

Biological target: T1, GFP-RAB23 (human)
Test: co-IP; GFP-Trap A agarose beads on lysates of MG-63 cells transfected with GFP-RAB23 or control GFP; cells starved 1 h, osteogenic medium with BMP2 10 min; western blot

| Molecule | binding |
| --- | --- |
| cortactin (from UniProt Q14247 1-550) | binds |
| endophilin A2 (from UniProt Q99961 1-368) | binds |
| B1 | binds |

Biological target: T2, HA-RAB23 (human)
Test: co-IP; mouse anti-HA antibody and protein G Mag sepharose on lysates of MG-63 cells transfected with HA-RAB23 pcDNA3.1 (control: IgG on un-transfected cells); cells starved 1 h, osteogenic medium with BMP2 10 min; Pierce IP lysis buffer, 4 °C overnight; western blot

| Molecule | binding |
| --- | --- |
| α-adaptin 1 subunit of Adaptor protein 2 complex (from UniProt O95782 1-977) | no binding |
| α-adaptin 2 subunit of Adaptor protein 2 complex (from UniProt O94973 1-939) | no binding |
| β-adaptin subunit (AP2β1) of the clathrin adaptor protein 2 (AP-2) complex (from UniProt P63010 1-937) | binds |
